Laboratory results: PMC4336329 (PLoS ONE, 2015)
The whole screen tested about 310,000 compounds, of which about 2,200 (0.71%) showed an effect of 50% or more. The effect is printed as a negative number. Some of the results follow.

Biological target: human ether-à-go-go-related gene (hERG) potassium channel (human, UniProt Q12809)
Assay: primary screen, population patch clamp on CHO cells stably expressing hERG

Chain of human ether-à-go-go-related gene (hERG) potassium channel (Q12809 whole entry, looked up): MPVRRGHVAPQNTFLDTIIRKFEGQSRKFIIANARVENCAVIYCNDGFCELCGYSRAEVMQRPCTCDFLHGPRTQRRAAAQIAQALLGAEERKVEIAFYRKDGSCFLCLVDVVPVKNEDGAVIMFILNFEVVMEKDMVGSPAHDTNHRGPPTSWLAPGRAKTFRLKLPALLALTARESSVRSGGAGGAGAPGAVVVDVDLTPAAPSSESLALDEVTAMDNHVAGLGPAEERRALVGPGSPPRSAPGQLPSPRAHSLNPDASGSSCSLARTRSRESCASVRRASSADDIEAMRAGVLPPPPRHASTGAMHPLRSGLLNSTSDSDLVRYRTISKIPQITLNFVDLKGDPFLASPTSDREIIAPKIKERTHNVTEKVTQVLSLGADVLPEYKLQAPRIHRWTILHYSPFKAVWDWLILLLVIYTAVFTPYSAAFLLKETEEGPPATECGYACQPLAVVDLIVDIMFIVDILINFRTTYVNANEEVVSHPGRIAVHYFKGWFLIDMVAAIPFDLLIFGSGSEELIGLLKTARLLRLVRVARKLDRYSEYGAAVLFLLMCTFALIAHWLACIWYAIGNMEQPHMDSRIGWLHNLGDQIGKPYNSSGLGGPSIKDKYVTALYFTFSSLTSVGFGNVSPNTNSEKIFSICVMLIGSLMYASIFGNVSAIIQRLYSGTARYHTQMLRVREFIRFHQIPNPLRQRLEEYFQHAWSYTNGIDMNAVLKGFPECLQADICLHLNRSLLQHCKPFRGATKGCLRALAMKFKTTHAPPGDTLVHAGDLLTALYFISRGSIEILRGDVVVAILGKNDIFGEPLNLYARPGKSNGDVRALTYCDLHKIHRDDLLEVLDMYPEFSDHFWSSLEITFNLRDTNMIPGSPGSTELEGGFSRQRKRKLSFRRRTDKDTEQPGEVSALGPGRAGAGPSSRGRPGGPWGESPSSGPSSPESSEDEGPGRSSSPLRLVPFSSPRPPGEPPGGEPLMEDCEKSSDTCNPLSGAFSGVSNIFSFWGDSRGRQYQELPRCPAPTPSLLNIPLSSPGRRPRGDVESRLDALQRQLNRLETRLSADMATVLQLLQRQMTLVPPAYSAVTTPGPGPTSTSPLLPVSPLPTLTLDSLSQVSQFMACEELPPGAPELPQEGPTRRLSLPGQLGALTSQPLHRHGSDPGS

SMILES	hERG current change (%, negative = inhibition) at 1uM [%]
CCCN1CCC(N2CCCC(C(=O)O)C2)CC1.Cl (centres unmarked)	16.4
O=C(CN1CCN(C(c2ccccc2)c2ccccc2)CC1)N1N=CCC1c1ccccc1 (centres unmarked)	-5.07
CCC(=O)NCc1ccc(-c2nc3ncccc3o2)cc1	15.1
CCN1CCCC1Cn1cnc2c([nH]c3cc(OC)ccc32)c1=O (centres unmarked)	-53.5
COCc1cc(CN(C)C(=O)c2oc3c(F)cccc3c2C)[nH]n1	10.3
C=CCN1C=C2C(=O)C(C)(OC(=O)CCC(=O)OC)C(=O)C(Br)=C2C=C1c1ccc(OC)cc1 (centres unmarked)	7.67
CN(C)CCNC(=O)c1cc2sc3ccccc3c2s1.Cl	9.53
CC1CN(C(=O)CCC(=O)N2CCC3(CC2)OCCO3)c2cc(Cl)ccc2O1 (centres unmarked)	4.85
COc1ccc(Cc2nnc(NC(=O)CSc3ccc(C)cc3)s2)cc1OC	4.74
N#CCCn1cc(C=C2C(=O)NC(=O)NC2=O)c(-c2ccccc2)n1	15.9
O=S(=O)(NC1CCCc2ccccc21)c1cnc[nH]1 (centres unmarked)	7.53
COC(=O)CN(C(=S)Nc1ccccc1)C1CC(=O)N(c2ccc(OC)cc2)C1=O (centres unmarked)	5.55
CCn1c(Cc2ccccc2)nnc1SCC(=O)Nc1nnc(-c2ccccc2)s1	11.7
CC(C)(Oc1ccc(Cl)cc1)C(=O)Nc1c2c(nn1C(C)(C)C)CS(=O)(=O)C2	-25.1
CCCCCCc1cc2cc(-c3nnc(-c4ccccc4O)o3)c(=O)oc2cc1O	-4.81
Cc1ccc(/S(C)=N/S(=O)(=O)c2ccc(C)cc2)cc1 (centres unmarked)	10.7
O=C(NCc1ccco1)c1ccccc1	4.69
O=C(O)C(=O)O.OCCN1CCN(CC(O)COC(c2ccc(F)cc2)c2ccc(F)cc2)CC1 (centres unmarked)	-20.2
O=C(CCC1CCCN(C(=O)c2ccoc2)C1)NCc1ccc(F)c(F)c1 (centres unmarked)	3.67
CCCOc1ccc(C(=O)NNC(=S)NC(=O)c2ccco2)cc1	11.7
Cc1cc(NC(=O)CCC(=O)N(Cc2ccccc2)C2(C(=O)NC3CCCCC3)CCCC2)no1	8.05
CCN(CC)CCCNc1nc(N)c([N+](=O)[O-])c(N2CCCCCC2)n1	1.42
CC(=O)Nc1ccc(NC(=O)CCNS(=O)(=O)c2cccc3nsnc23)cc1	18.9

SMILES	hERG current change (%, negative = inhibition) at 1uM [%]
COc1ccc(NC(=O)Cc2ccccc2F)cn1	-6.84
CC1Cc2ccccc2N1C(=O)/C=C/c1cccc(F)c1 (centres unmarked)	13.3
COc1ccc(CN2CCCCC2c2cccnc2)cc1C (centres unmarked)	10.1
C=CCOc1ccc(C=Nc2ccc(C)c(Cl)c2)c(O)c1	11.2
CCOC(=O)C1CCCCN1S(=O)(=O)c1cc2c(cc1C)NC(=O)CO2 (centres unmarked)	-1.58
CC1CCCN(CCCOc2ccc(Br)cc2Cl)C1.O=C(O)C(=O)O (centres unmarked)	-46.1
Cc1cc(C)[n+](-c2ccc(C(C)C)cc2)c2[nH]c(=O)[nH]c(=O)c12.[I-]	-1.23
COc1cccc(CNc2ccc([N+](=O)[O-])cc2C)c1	10.7
CC1(C)CC(=O)C2=C(C1)N=C1SCCC(=O)N1C2c1ccccc1 (centres unmarked)	7.18
O=C(CCSCc1cccc(Cl)c1)NC1CCCC1	2.44
Cn1cnc([N+](=O)[O-])c1Sc1ccc(Br)cc1	10.6
Cl.OCCNCCNCc1ccccc1OCc1ccccc1	11.1
O=C1CCCc2c1cc(C(=O)O)c(=O)n2-c1ccccc1	13.7
COc1cccc(C(=O)NCCS(=O)(=O)N2CCN(C(=O)c3ccco3)CC2)c1	1.81
CCOC(=O)c1c(N)n(C2CC(C)(C)NC(C)(C)C2)c2nc3ccccc3nc12	-1.51
COc1ccccc1/C=C(/CC(=O)NCc1ccc(F)cc1)c1nc2ccccc2s1	1.42
Cc1ccc(/C=N/Nc2nnc(Cl)c3ccccc23)cc1	-1.46
O=C(Nc1ccc(N2CCCCC2)cc1)c1cccnc1	4.84
N#Cc1cn(-c2ccccc2)nc1C(=O)c1ccccc1	-3
Cc1ccc(S(=O)(=O)N2CCC(C(=O)NCc3ccccc3Cl)CC2)cc1	3.46
C=C(C)Cn1c(N2CCCC2)nc2c1c(=O)n(C)c(=O)n2C	15.7
Cc1c(Cl)cccc1NC(=O)CNC(=O)C1CC(=O)N(CCc2ccccc2)C1 (centres unmarked)	8.56
O=C(OCc1ccc([N+](=O)[O-])cc1)c1ccc(N2CCCC2)c([N+](=O)[O-])c1	1.62

SMILES	hERG current change (%, negative = inhibition) at 1uM [%]
Cc1ccc(N2C(=O)NC(=O)C3(Cc4ccccc4N4CCCC43)C2=O)cc1 (centres unmarked)	-3.63
O=C(O)c1ccccc1C(=O)NNc1cccc(Cl)n1	11.5
Cc1cc(C)cc(OCC(=O)NCCc2nc3ccccc3[nH]2)c1	-9.57
COc1ccccc1CNC(=O)c1[nH]c(C)c(C(C)=O)c1C	18.8
O=C(COc1ccccc1)Nc1ccc(S(=O)(=O)N2CCCC2)cc1	8.48
O=C(COc1ccc(F)cc1)Nc1ccc(-n2cnnn2)cc1	-27.2
CCOC(=O)NC1(C(F)(F)F)N=C(c2ccccc2)NC1=O (centres unmarked)	10.9
O=C1C=C(O)CC(c2ccc(Cl)c(Cl)c2)C1 (centres unmarked)	-15
N/C(=N\OC(=O)CCCN1C(=O)c2ccccc2C1=O)c1ccccn1	14
COc1ccc(-c2ccc(-c3nc4ccc(C)cn4c3NC3CCCCC3)cc2OC)cc1.O=C(O)C(F)(F)F	13.2
COc1ccccc1CNC(=O)CCNS(=O)(=O)c1ccc2c(c1)CC(C)N2C(C)=O (centres unmarked)	25.6
CCCc1nnc(SCC(=O)O)n1CC	6.9
CC(=O)N1CCc2cc(S(=O)(=O)CCC(=O)N3CCC(C)CC3)ccc21	15.5
Cn1nnnc1SCc1nc2scc(-c3ccccc3)c2c(=O)[nH]1	13.9
Cc1cc(C(=O)NNC(=O)c2cccc(C(F)(F)F)c2)no1	11.5
CN(C)CCCN(C(=O)c1ccc(S(=O)(=O)N2CCOCC2)cc1)c1nc2cc3c(cc2s1)OCO3.Cl	-21.5
COc1ccccc1C(=O)Nc1ccccc1SC	0.922
CC1CC(=O)C2=C(C1)Nc1nc3ccccc3n1C2c1cccnc1 (centres unmarked)	-8.22
CN(C)c1ccc(/C=C(\NC(=O)c2ccccc2)C(=O)NCCCn2ccnc2)cc1	9.45
CC(Oc1cc2oc(=O)c3c(c2cc1Cl)CCCC3)C(=O)NCC1CCC(C(=O)O)CC1 (centres unmarked)	14
Cc1ccc(OC(=O)c2sc(Cl)nc2C)cc1C	2.33
CN(C)c1ccc(NC(=O)CCN2CCN(c3ccccn3)CC2)cc1	17.9
Cc1ccc(NS(=O)(=O)c2ccc(-n3cccn3)cc2)c(C)c1	16.4

SMILES	hERG current change (%, negative = inhibition) at 1uM [%]
Cc1ccccc1CC(=O)NCc1cccnc1	11.7
CCOC(=O)/C(=N\Nc1ccccc1Cl)N1CC(C)OC(C)C1 (centres unmarked)	14.5
CCOC(=O)C1=C(COC(=O)/C=C/c2ccc(OCC)c(OC)c2)NC(=O)NC1C (centres unmarked)	14.8
N#Cc1cn(CC(=O)NCCc2c[nH]c3ccccc23)c2ccccc12	9.33
Cc1ccc(-c2nc(CN(C)C(C3CC3)C3CC3)c(C)o2)cc1	-10.7
O=C(Nc1cccc(C(F)(F)F)c1)C1(c2ccccc2)CC1	7.82
Cc1ccccc1OCC(=O)Nc1nnc(-c2ccco2)s1	2.15
O=C(CSc1nc2[nH]ncc2c(=O)[nH]1)Nc1ccc(Cl)cc1	6.52
O=C(Nc1c(F)cc(F)cc1Br)c1cc(-c2ccccc2)on1	16.4
CC(=O)Nc1ccc(NC(=O)C2CCN(S(=O)(=O)c3ccc4c(c3)OCCO4)CC2)cc1	13.7
CCOc1cc(C2NC(=O)NC(C)=C2C(C)=O)cc(Cl)c1OCC(=O)O (centres unmarked)	7.05
Cc1nn(S(=O)(=O)c2ccc(F)cc2)c(C)c1S(=O)(=O)N1CCOCC1	13.9
CC(C)NCC(O)Cn1c2c(c3ccccc31)CCc1c-2cnn1-c1ccccc1 (centres unmarked)	0.912
O=C(c1ccco1)N(c1ccccn1)c1ccccn1	5.08
COc1cc(CN2CCC(n3nccc3NC(=O)CCCc3ccccc3)CC2)ccc1F	9.25
O=C1CC(c2cccc(Oc3ccccc3)c2)NC(=O)N1 (centres unmarked)	12.3
O=C1NC(=Nc2ccc(O)cc2)S/C1=C\C=C\c1ccco1	8.07
Cc1cccc(-c2nc3cc([N+](=O)[O-])ccc3o2)c1	4.41
CN(C)S(=O)(=O)c1ccc(NC(=O)COC(=O)Cn2[nH]c(=O)c3ccccc3c2=O)cc1	16.9
CC1CCC(NC(=O)c2cc(S(=O)(=O)N3CCCCC3)ccc2N2CCOCC2)CC1 (centres unmarked)	-6.04
